Reference: PubChem BioAssay AID1159614 (National Center for Advancing Translational Sciences (NCATS), 2016)
The whole screen tested about 45,000 compounds, of which about 65 (0.1%) were called active. Calls follow the shape of the dose curve; as a rule, active = well fitted activation curve with a large enough effect; inconclusive = small, poorly fitted or top-dose-only effect; inactive = no such curve, though single readings can be large or run the other way. Some of the results follow.

These compounds were tested against Galactocerebrosidase (Homo sapiens) (UniProt P54803) (assay: A Novel Cell-Based Assay to Identify Small Molecules for B -Galactocerebrosidase). Conditions: 145M-Twi-hGALC-G270D cells (Twitcher mouse brain line with human GALC G270D), HMU-beta-Gal fluorescence, 48 h; series mostly up to 57.5 µM; activation: at the top concentration.
Chain of UniProt P54803 (P54803 whole entry, looked up): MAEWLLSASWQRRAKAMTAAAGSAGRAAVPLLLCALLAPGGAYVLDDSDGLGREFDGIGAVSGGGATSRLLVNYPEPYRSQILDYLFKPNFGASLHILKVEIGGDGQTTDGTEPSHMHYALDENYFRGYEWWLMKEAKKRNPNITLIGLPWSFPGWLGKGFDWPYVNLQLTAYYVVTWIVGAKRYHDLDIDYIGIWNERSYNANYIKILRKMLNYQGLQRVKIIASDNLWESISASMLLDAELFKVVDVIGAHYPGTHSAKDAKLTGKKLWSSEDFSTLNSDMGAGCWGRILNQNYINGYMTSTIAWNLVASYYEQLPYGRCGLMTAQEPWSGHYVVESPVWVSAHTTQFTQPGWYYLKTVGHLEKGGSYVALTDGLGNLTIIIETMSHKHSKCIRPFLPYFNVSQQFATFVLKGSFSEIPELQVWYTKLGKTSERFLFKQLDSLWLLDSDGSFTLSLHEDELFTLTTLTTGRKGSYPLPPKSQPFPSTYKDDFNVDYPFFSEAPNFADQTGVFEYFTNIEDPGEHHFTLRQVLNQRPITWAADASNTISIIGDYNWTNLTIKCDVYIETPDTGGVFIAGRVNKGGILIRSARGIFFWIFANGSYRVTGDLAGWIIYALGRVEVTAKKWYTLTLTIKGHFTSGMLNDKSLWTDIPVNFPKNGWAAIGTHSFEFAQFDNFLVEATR
Summary of the method: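 Fluorescence readout: HMU-β-gal cleavage by mutant GALC (0.1 mM final, citrate/phosphate pH 5.2 with 1 mg/mL taurocholate), stopped with carbonate/bicarbonate plus Triton X-100. Cells: murine Twitcher 145M-Twi expressing human G270D GALC; qHTS for activators.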
Also: 0% is about no effect; nearly all actives have a fitted effect of over 65% in size.

activation, inactive:
CCOC(=O)c1cc(S(=O)(=O)N(C)c2ccccc2)[nH]n1 4.91%
Cc1ccc(CNC(=O)c2cc(NS(=O)(=O)c3ccc(C)cc3)ccn2)cc1 -10.9%
CCOc1ccc(S(=O)(=O)Nc2ccc3c(c2)CCCN3S(=O)(=O)c2ccc(C)cc2)cc1 14.8%
Cc1ccc2nc(N)[nH]c(=O)c2c1Sc1ccncc1 -6.63%
Cc1ccc(NS(=O)(=O)c2ccc3[nH]c4c(c3c2)CCCCCC4)cc1C -49%
COc1ccc(CCNCc2c(C(=O)O)c(C)n(Cc3cccc(C)c3)c2C)cc1OC -12.3%
CCCOc1ccc(C(=O)Nc2ccc(NC(=O)c3ccc(Br)cc3)cc2)cc1 -9.59%
Cc1cccc(Nc2nnc(-c3ccc(C)c(S(=O)(=O)N4CCOCC4)c3)c3ccccc23)c1 -15.4%
Cn1c(Oc2cccc(Cl)c2)nc2c1c(=O)n(Cc1ccccc1Cl)c(=O)n2C -8.17%
Cn1c(C(=O)NCc2ccccc2F)cc2cc(S(=O)(=O)N3CCCCC3)ccc21 -6.16%
COc1ccc(NC(=O)CN(C)S(=O)(=O)c2ccc3nc(C)sc3c2)cc1Cl 0.512%
COC(=O)c1sc2cccc(F)c2c1S(=O)(=O)NCc1ccccc1Cl -8.72%
COc1ccc(CNC(=O)C(=O)Nc2ccccc2OC)cc1 -6.84%
COC(=O)c1sc(S(=O)(=O)N2CCN(c3ccc(OC)cc3)CC2)c(C(=O)OC)c1C -11.7%
CCOC(=O)[C@@](C)(N)Cc1ccc(O)c(O)c1 2.86%
Cc1cc(O)c(C(c2ccccc2)N2CCN(c3ccccc3F)CC2)c(=O)n1Cc1ccco1 (stereo unspecified) -21.2%
CCC(=O)N1CCc2cc(Br)cc(S(=O)(=O)CCC(=O)NCc3ccc(C)cc3)c21 -24.1%
CC(=O)Nc1c(C)nn(-c2ccccc2)c1N1CCC(C(=O)Nc2ccc(Cl)cc2C)CC1 -19.7%
COc1cc(NC(=O)CN2C(=O)C(c3ccc(C)cc3)=NC23CCCCCC3)cc(OC)c1 -14.5%
O=C(c1ccccc1)c1ccc2n1CCC2C(=O)O (stereo unspecified) -5.36%
Cc1ccc(-c2nc3ccccc3[nH]2)cc1NC(=O)COc1ccc(Cl)cc1Cl -21.9%
COc1ccc(OC)c(NC(=O)CSc2nccn2-c2cc(C)cc(C)c2)c1 -35.4%
Cc1ccc(Cn2c3ccccc3c3cnn(CC(=O)N4CCCCCC4)c(=O)c32)cc1 -9.22%
COc1ccc(-n2nc3c(c2NC(=O)C(=O)NCc2ccccc2)CSC3)cc1 -4.22%
Cc1ccc(CN2C(=O)CC(c3ccc(Cl)cc3)c3c(C)nn(-c4nc(C)cc(C)n4)c32)cc1 (stereo unspecified) -15.4%
COc1c(N2CCNC(C)C2)c(F)cc2c(=O)c(C(=O)O)cn(C3CC3)c12 (stereo unspecified) -16.7%
COc1ccc(N2CCN(C(=O)CCc3nnc4n(C)c(=O)c5sccc5n34)CC2)cc1 -7.67%
CC1(C)N=C(c2ccc(F)cc2)C(=O)N1CC(=O)Nc1ccccc1Cl -10.5%
COc1ccc(-n2c(=O)c3ccc(C(=O)NCc4ccc(C)cc4)cc3n(Cc3ccc(F)cc3Cl)c2=O)cc1 -16%
CCCC(=O)Nc1nc2c(s1)CC(C(C)(C)C)CC2 (stereo unspecified) 9.06%
CCOc1ccc(-n2c(=O)c3c(C)c(C)sc3n(Cc3c(F)cccc3Cl)c2=O)cc1 2.88%
COC(=O)c1cc2oc(C)cc2n1CC(=O)Nc1ccc(OC)c(OC)c1 -16%
COC(=O)c1ccc(NC(=O)CSc2nccn2Cc2ccc(Cl)cc2)cc1 -4.17%
COc1cccc(CNC(=O)CCCn2c(=O)c3cccn3c3ccc(F)cc32)c1OC -6.01%
Cn1c(=O)cc(SCC(=O)NCCc2ccc(Cl)cc2)c2cc(Cl)ccc21 -3.5%
Cc1cc(C)cc(NC(=O)Cn2c(=O)n(CCC(C)C)c(=O)c3cccnc32)c1 -11.6%
CCc1ccc2oc(C(=O)N(Cc3cccc(Cl)c3)Cc3ccco3)c(C)c2c1 -11.5%
COc1ccc(N2C(=O)CS(=O)(=O)C23C(=O)N(Cc2ccccc2)c2ccccc23)cc1 (stereo unspecified) -20.3%
COc1cccc(-c2nc(S(=O)(=O)c3ccc(C)cc3)c(NCc3ccccc3)o2)c1 -8.7%
Clc1cccc(N2CCN(c3nc4ccccc4c4nc(-c5ccccc5)nn34)CC2)c1 -19%
CCN1CCN(c2cc(C)c3cc(NC(=O)c4cc(OC)c(OC)c(OC)c4)ccc3n2)CC1 6.82%
COc1ccc(-c2cc(C(C)=O)c(C)n2CCC(=O)Nc2cccc(C)c2C)cc1 -6.58%
O=C(CSc1nc2ccccc2c2nc(-c3ccccc3)nn12)Nc1ccc(F)cc1 5.94%
O=C(Cn1c2ncccc2c(=O)n1-c1ccccc1)Nc1cccc(C(F)(F)F)c1 -11.9%
CCC(=O)C1=C(c2cccc([N+](=O)[O-])c2)N(C(=O)CC)n2c(nnc2C2CCCCC2)S1 -1.89%
COc1cc(NC(=O)CN(C)S(=O)(=O)c2ccc3c(c2)CCCC(=O)N3)cc(OC)c1OC -28.7%
CCc1ccc2c(c1)c(=O)c(S(=O)(=O)c1ccccc1)cn2CC(=O)Nc1cc(C)ccc1C -7.41%
Cc1ccccc1-c1nc(CS(=O)(=O)CC(=O)Nc2c(C)cccc2C)c(C)o1 18.8%
Cc1ccc(CCNC(=O)Cn2ncc3c(=O)oc4ccccc4c32)cc1 0.825%
COc1ccc(-c2nc3ccccc3o2)cc1NC(=O)COc1c(C)cc(Cl)cc1Cl -17%
OCc1ccccc1O -26.2%
CCOc1ccccc1N(C)C(=O)c1cc(S(=O)(=O)NCc2ccc(C)cc2)ccc1F -3.47%
CN1CCN(C(=O)c2cnn(-c3ccccc3)c2C2CCN(C(=O)OC(C)(C)C)CC2)CC1 0.826%
CCc1cccc(NC(=O)Cn2c(=O)n(Cc3ccccc3)c(=O)c3c(C)c(C(=O)N(C)C)sc32)c1 -9.07%
CCc1nnc(SC(CC)C(=O)NCCOC)c2cc3occc3n12 (stereo unspecified) -13.8%
CCc1nn2c(=O)cc(COC(=O)c3cccc(NC(=O)COc4ccccc4F)c3)nc2s1 -7.64%
COc1ccc(Cl)cc1NC(=O)c1cc(=O)c2cc(C)cc(C)c2o1 -17.3%
Cc1ccc(C)c(NC(=O)Cn2cc(S(=O)(=O)N3CCCC3)c(S(=O)(=O)N3CCCC3)c2)c1 -16.8%
Cc1cccc(NC(=O)CSc2nc(C)cc(C)c2C(=O)Nc2ccc(Cl)cc2)c1 -8.15%
CCOC(=O)C1CCN(c2csc3ccc(C)cc3c2=O)CC1 -9.93%
COC(=O)c1cc2sc(C)cc2n1Cc1nc(-c2cccc(Br)c2)oc1C -11.1%
CC(C)(C)OC(=O)N1CCC(c2c(C(=O)N3CCN(c4ccccc4F)CC3)cnn2C(C)(C)C)CC1 -18.2%
Cc1cccc(-c2nc3c4ccccc4n(CC(=O)Nc4cccc(F)c4)c(=O)n3n2)c1 -12.2%
COc1ccc(NC(=O)c2cc(C(C)=O)n3ccccc23)cc1Cl -21.3%
CCOC(=O)NNc1ccc(N(CC)CC(C)O)nn1 (stereo unspecified) -7.57%
COc1ccc2c(CNCc3cccs3)c(C(=O)O)n(Cc3cccc(F)c3)c2c1 5.93%
Cc1cc(/C=C(\C#N)C(=O)Nc2ccccc2)c(C)n1-c1ccc(F)cc1 -6.2%
COC(=O)c1ccccc1NC(=O)c1sc2nc(C)cc(C)c2c1NC(=O)c1ccccc1Cl -17.3%
O=C(Cc1ccccc1)Nc1sc2c(c1C(=O)Nc1ccccc1Cl)CCCC2 -17.8%
COc1cc(NC(=O)c2nc(-c3ccc(Cl)cc3)n3c2CCCCC3)cc(OC)c1OC -17.4%
COc1ccc(CNC(=O)Cn2ccc3cc(S(=O)(=O)N4CCCC4)ccc32)c(OC)c1 -14.7%
CCn1c(=O)n(-c2ccc3c(c2)OCO3)c2nc(-c3cc(OC)ccc3OC)nc(C(N)=O)c21 -5.48%
Cc1cccc(C(=O)Nc2ccc3nc(SCC(=O)N4CCc5ccccc54)sc3c2)c1 -7.81%
COc1ccc(OC)c(-c2nnc3n(CCc4ccccc4)c(=O)c4ccccc4n23)c1 -11.6%
COc1ccc(CNC(=O)c2cc(C3CC3)nc3c2c(C)nn3-c2cccc(Cl)c2C)cc1 -15.7%
COc1ccc(NC(=O)c2ncoc2-c2ccco2)cc1Cl 7%
CC(CNC(=O)c1ccc2nc(CCc3ccccc3)oc2c1)c1ccccc1 (stereo unspecified) -16.7%
CCOC(=O)c1cccc(NC(=O)C2CCN(S(=O)(=O)c3c(C)noc3/C=C/c3ccc(C)cc3)CC2)c1 -15.4%
CCOc1ccc2oc(=O)cc(CN3CCN(C(=O)c4cccc(Cl)c4)CC3)c2c1 -0.901%
COc1ccc(CNC(=O)c2ccc(NC(=O)N3CCSc4ncccc43)cc2)c(OC)c1 -11.9%
Cc1ccccc1C(=O)Nc1cccc(C(=O)OCc2cc(=O)n3c(C)csc3n2)c1 -3.33%
Cc1ccc(C)c(Nc2nn3c(=O)c4ccc(C(=O)N(C)Cc5ccccc5)cc4nc3s2)c1 -11.1%
CCOC(=O)c1sc2ncn(CC(=O)Nc3cc(C)cc(C)c3)c(=O)c2c1C -19%
COC(=O)c1ccccc1NC(=O)Cn1c(=O)cc(-c2ccccc2)c2c(C)nn(C)c21 -12.4%
CCN(CC)C(=O)Cn1c(=O)n(CCCCCC(=O)Nc2ccccc2)c(=O)c2sccc21 -22.1%
NC(=O)C(=O)N/N=C/c1ccc([N+](=O)[O-])o1 -13.3%
O=C(NCc1ccccc1F)c1cc2ccccn2n1 0.098%
Cc1ccc2oc(=O)c3cc(C(=O)NCc4ccc(Cl)cc4)sc3c2c1 -17.6%
Cc1ccc(NC(=O)C2CCCN2S(=O)(=O)c2cccc3nsnc23)c(Br)c1 (stereo unspecified) -16.7%
Cc1ccc(CN2CCc3nc(N4CCN(c5ccccc5F)CC4)ncc3C2)s1 -6.37%
COc1ccc(-c2csc3nc(-c4ccc(F)cc4)oc(=O)c23)cc1OC -17%
Cc1ccc(-c2noc(CSc3nnc(C)n3-c3ccc(F)cc3)n2)cc1 -15.5%
Cc1cccc(C)c1NC(=O)CCS(=O)(=O)c1ccc2c(c1)n(C)c(=O)c(=O)n2C 18.8%
COc1ccc(CNC(=O)c2ccc(NC(=O)N3CCCCc4ccccc43)cc2)c(OC)c1 -2.11%
Cc1cc(SCC(=O)NCc2ccccc2Cl)nc(=O)[nH]1 -18.5%
Cc1cccc(-c2nc(C)c(CCNC(=O)C(=O)Nc3c(C)cc(C)cc3C)s2)c1 -39.7%
